PubChem BioAssay AID588855 (National Center for Advancing Translational Sciences (NCATS), 2011)
Screen size: about 410,000 compounds; about 5,000 (1.2%) were called active. Inconclusive means that the source gave no clear call. Such entries were picked first, then a sample of the others. The call rests on the fitted dose curve; in most records, active means well fitted inhibition curve with a large enough effect; inconclusive means small, poorly fitted or top-dose-only effect; inactive means no such curve, though single readings can be large or run the other way. Potencies beside an inconclusive call are fits to weak or partial responses and may not hold up.

test: qHTS for Inhibitors of TGF-b; details: HepG2 CAGA-GFP TGF-b/SMAD3 reporter, GFP fluorescence, 18 h, TGF-beta stimulated, 500 pg/mL final; series mostly up to 46.1 µM; further: nearly all actives have a fitted effect of over 65% in size
Summary of the method: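 First, reporter cells (HEPG2 CAGA-GFP) rested 2 h at 37 degrees C. Next, compounds were pinned in and TGF-beta added to 500 pg/mL final. After 18 h, GFP was imaged per cell and summed per well.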
Potency means the concentration at half of the fitted maximal effect; tags describe the fitted curve by direction and shape.

| SMILES | Potency |
| --- | --- |
| O=C1NCc2c1c1c3ccccc3[nH]c1c1[nH]c3ccccc3c21 | inconclusive: 12.6 µM [inhibitor, partial curve, poor fit] |
| Cc1n[nH]c(C)c1CCCCOc1ccc([N+](=O)[O-])cc1 | inconclusive: 35.5 µM [inhibitor, single point] |
| COc1cccc(CN(C)C[C@@H]2OCc3ccccc3-c3c(n(C)c4ccccc34)C(=O)N([C@@H](C)CO)C[C@H]2C)c1 | inconclusive: 35.5 µM [inhibitor, single point] |
| Oc1ccc(Cl)cc1Cc1ccccc1 | inconclusive: 22.4 µM [inhibitor, single point] |
| CN1CCN(c2ccc(C(F)(F)F)cc2N)CC1 | inactive |
| COc1ccccc1CN1CCCC(C(=O)c2ccccc2SC)C1 (stereo not given) | inconclusive: 8.91 µM [inhibitor, partial curve, poor fit] |
| COC(=O)C1=C(c2ccccc2OCc2ccccc2)C[C@@H]2CC[C@H]1N2C(=O)NCCOc1ccccc1 | inconclusive: 35.5 µM [inhibitor, single point] |
| O=P(Nc1ccccc1)(Nc1ccccc1)Oc1cccc(Cl)c1 | inconclusive: 20 µM [inhibitor, single point] |
| Oc1ccc(Cl)cc1CN1CCN(Cc2ccccc2)CC1 | inactive |
| CCC(=NCc1ccc2c(c1)OCO2)c1c(O)n(C2CCCCC2)c(=O)[nH]c1=O | inconclusive: 35.5 µM [inhibitor, single point] |
| CNC(=S)N/N=C1\C2CN3CCN(C2)CC1(c1ccccc1)C3 | inactive |
| CCCNC(=O)N1[C@H]2CC[C@@H]1C(C(=O)OC)=C(c1ccccc1)C2 | inconclusive: 14.1 µM [inhibitor, single point] |
| CCc1ccc2c(c1)Sc1ccccc1CC2N1CCN(C)CC1 (stereo not given) | inconclusive: 25.1 µM [inhibitor, single point] |
| O=C1NCN(c2ccccc2)C12CCN(C(c1cccc3ccccc13)c1nnnn1C1CCCCC1)CC2 (stereo not given) | inconclusive: 10 µM [inhibitor, partial curve] |
| CN(CC1COc2ccccc2O1)c1nc(-c2cccnc2)nc2ccccc12 (stereo not given) | inconclusive: 35.5 µM [inhibitor, single point] |
| COc1cc(-n2c(=S)[nH]c3ccccc3c2=O)c(Cl)cc1Cl | inconclusive: 35.5 µM [inhibitor, single point] |
| COC(=O)C1=C(c2ccc(S(C)(=O)=O)cc2)C[C@@H]2CC[C@H]1N2C(=O)NCc1ccco1 | inactive |
| O=C(Nc1ccc2nc(SCC(=O)N3CCOCC3)sc2c1)c1ccc(Cl)cc1 | inconclusive: 3.16 µM [inhibitor, partial curve] |
| CN(Cc1ccccc1)C1CCCN(C(=O)COc2ccccc2Cl)C1 (stereo not given) | inactive |
| CCOC(=O)c1c(NC(=O)C(c2ccccc2)c2ccccc2)sc2c1C1CCN2CC1 | inconclusive: 20 µM [inhibitor, single point] |
| Cc1ccc(C(=O)N/C(=C\Cl)P(=O)(c2ccccc2)c2ccccc2)cc1 | inconclusive: 3.16 µM [inhibitor, partial curve] |
| COC(=O)C1=C(c2ccc(OC(F)(F)F)cc2)C[C@@H]2CC[C@H]1N2C(=O)NCCOc1ccccc1 | inconclusive: 25.1 µM [inhibitor, single point] |

| SMILES | Potency |
| --- | --- |
| C[C@@H]1CNC(=O)c2c(C(=O)Nc3ccc(CNC(=O)OC(C)(C)C)cc3)ncn21 | inconclusive: 11.2 µM [inhibitor, partial curve] |
| Cn1c(=O)oc2cc(S(=O)(=O)N3CCCC(C(=O)N4CCN(c5cccc(Cl)c5)CC4)C3)ccc21 (stereo not given) | inconclusive: 11.2 µM [inhibitor, single point] |
| Cn1c(O)c(C(=O)c2ccccc2)c(=O)n(C)c1=O | inconclusive: 0.562 µM [inhibitor, full curve, poor fit] |
| O=C(CNC(=O)c1ccc(Br)cc1)Nc1ccc(Br)cc1C(=O)c1ccccc1 | inconclusive: 35.5 µM [inhibitor, single point] |
| COc1ccc(CN2CCN(C(=O)COc3ccccc3)CC2)c(OC)c1 | inactive |
| C=C1C(=O)O[C@@H]2C[C@@H](C)[C@@H]3C=CC(=O)[C@@]3(C)[C@@H](O)[C@H]12 | active: 3.98 µM |
| N#CC1c2ccccc2-n2nncc2CN1Cc1cc(Cl)cc(Cl)c1 (stereo not given) | inconclusive: 7.94 µM [inhibitor, partial curve, poor fit] |
| Cc1cccc(C2CC(=O)Oc3c2c(=O)oc2ccccc32)c1 (stereo not given) | inactive |
| CCCC/C(C)=C/[C@@H](NP(=O)(c1ccccc1)c1ccccc1)c1ccccc1 | inconclusive: 17.8 µM [inhibitor, single point] |
| CN1C[C@H](C(=O)NC2(C)OC3(O)[C@@H]4CCCN4C(=O)[C@H](Cc4ccccc4)N3C2=O)CC2c3cccc4[nH]cc(c34)C[C@H]21 (stereo not given in full) | inactive |
| CCN(CC)C(=O)c1ccc(NC(=O)CCn2nc(-c3ccc(Cl)cc3)c3ccccc3c2=O)cc1 | inconclusive: 22.4 µM [inhibitor, single point] |
| CNC(=O)ON(C(=O)NC)C1N(C)C(=S)SC1(C)C (stereo not given) | inconclusive: 10 µM [inhibitor, partial curve, poor fit] |
| Cc1ccc2nc(-c3ccncc3)cc(C(=O)N3CCC4(CC3)OCCO4)c2c1 | inconclusive: 35.5 µM [inhibitor, single point] |
| Cc1ccc(OCC(=O)N2CCN(Cc3ccc([N+](=O)[O-])cc3)CC2)cc1 | inconclusive: 20 µM [inhibitor, single point] |
| CCOP(=O)(OCC)C1(O)C(=O)Nc2ccc(Br)cc21 (stereo not given) | inactive |
| COc1cccc(NC(=O)C2CCN(S(=O)(=O)c3cc(-c4noc(C)n4)ccc3C)CC2)c1 | inconclusive: 11.2 µM [inhibitor, partial curve] |
| COc1ccccc1CN1CCN(C(=O)COc2ccc3ccccc3c2)CC1 | inactive |
| O=C(O)c1cccc2nc3ccccc3nc12 | inconclusive: 11.2 µM [inhibitor, partial curve] |
| CC(c1ccccc1)n1cncc1C(=O)N1CCCC1=O (stereo not given) | inactive |
| O=C1NC(=S)N(C2CC2)C(=O)/C1=C/c1ccc2c(c1)CCN2CCCCl | inactive |
| Cc1cc(OCC(=O)N2CCN(CCc3ccccn3)CC2)cc(C)c1Cl | inconclusive: 35.5 µM [inhibitor, single point] |
| COc1ccccc1N1CCN(Cc2cccc(OC)c2O)CC1 | inactive |

| SMILES | Potency |
| --- | --- |
| Oc1cccc2cccnc12 | active: 3.55 µM |
| Cc1ccc(-n2nc(C)c3c2OC(N)=C(C#N)C3c2ccc(F)cc2)cc1 (stereo not given) | inconclusive: 25.1 µM [inhibitor, single point] |
| CC12CCC(O)CC1CCC1C2CCC2(C)C(C3=CC(=O)OC3)C(O)CC12O (stereo not given) | active: 10 µM |
| CCOc1ccc(CN(CCc2ccc3c(c2)OCO3)Cc2cccc(C)c2)cc1 | inconclusive: 4.47 µM [inhibitor, partial curve, poor fit] |
| O=C(c1ccc(Cl)cc1)C1CCCN(Cc2ccc3nonc3c2)C1 (stereo not given) | inconclusive: 20 µM [inhibitor, partial curve, poor fit] |
| COc1ccc(C(=O)NCCn2cc(SC(C)c3ccccc3)c3ccccc32)cc1OC (stereo not given) | inconclusive: 10 µM [inhibitor, single point] |
| CN1C(=O)NC(=O)/C(=C/c2ccc([N+](=O)[O-])s2)C1=O | inconclusive: 3.55 µM [inhibitor, full curve, poor fit] |
| Cc1ccc2c(c1)C(c1ccccc1)NCC(=O)N2 (stereo not given) | inactive |
| CCOC(=O)c1c(C)n(CC(O)CN2CCOCC2)c2cc(Br)c(OC)cc12 (stereo not given) | inconclusive: 35.5 µM [inhibitor, single point] |
| COc1cc([C@@H]2c3cc4c(cc3[C@@H](OC)[C@H]3COC(=O)[C@H]23)OCO4)cc(OC)c1O | inconclusive: 3.98 µM [inhibitor, partial curve, poor fit] |
| CC(NC(=O)Cn1c(=O)oc2cc(S(=O)(=O)N3CCCC3)ccc21)c1ccccc1 (stereo not given) | inconclusive: 35.5 µM [inhibitor, single point] |
| O=C(Nc1nc2c(Cl)cccc2s1)c1ccc(S(=O)(=O)N2CCc3ccccc32)cc1 | inconclusive: 5.62 µM [inhibitor, partial curve, poor fit] |
| COC(=O)C1=C(C(=O)OC)C2c3ccccc3C1c1ccccc12 | inactive |
| COC(=O)C1=C(c2ccc(-c3ccccc3)c(F)c2)C[C@@H]2CC[C@H]1N2C(=O)NCCc1ccccc1 | inconclusive: 22.4 µM [inhibitor, single point] |
| O=c1[nH]cnc2nc(-c3ccc(N(CCCl)CCCl)cc3)[nH]c12 | inconclusive: 22.4 µM [inhibitor, single point] |
| O=C1NCN(c2ccccc2)C12CCN(C(CCc1ccccc1)c1nnnn1Cc1ccccc1)CC2 (stereo not given) | active: 17.8 µM |
| CCCOP(=O)(OCCC)c1nc(-c2ccccc2)oc1NCc1ccccc1 | inconclusive: 35.5 µM [inhibitor, single point] |
| Cc1ccccc1C(=O)N1Cc2cnnn2-c2ccccc2C1C#N (stereo not given) | inconclusive: 35.5 µM [inhibitor, single point] |
| CC1(C)CN=C(Nc2nc3ccccc3s2)S1 | inconclusive: 3.98 µM [inhibitor, partial curve, poor fit] |
| COC(=O)C1=C(c2cccc(OCc3ccccc3)c2)C[C@@H]2CC[C@H]1N2C(=O)NCc1cccc(C(F)(F)F)c1 | inactive |
| Cc1ccc(C(C)C)c(OCCn2c(=O)oc3ccccc32)c1 | inconclusive: 35.5 µM [inhibitor, single point] |
